We go through 25 molecules from paper PMC4336329 (PLoS ONE, 2015).

The structures appear in SMILES notation. About 2,200 (0.71%) of roughly 310,000 compounds showed an effect of 50% or more. Effects have a minus sign here. The list shows a part of the results.

The target of the assay is human ether-à-go-go-related gene (hERG) potassium channel (human, UniProt Q12809). The assay can be described thus: primary screen, population patch clamp on CHO cells stably expressing hERG.
Chain of human ether-à-go-go-related gene (hERG) potassium channel (Q12809 whole entry, looked up): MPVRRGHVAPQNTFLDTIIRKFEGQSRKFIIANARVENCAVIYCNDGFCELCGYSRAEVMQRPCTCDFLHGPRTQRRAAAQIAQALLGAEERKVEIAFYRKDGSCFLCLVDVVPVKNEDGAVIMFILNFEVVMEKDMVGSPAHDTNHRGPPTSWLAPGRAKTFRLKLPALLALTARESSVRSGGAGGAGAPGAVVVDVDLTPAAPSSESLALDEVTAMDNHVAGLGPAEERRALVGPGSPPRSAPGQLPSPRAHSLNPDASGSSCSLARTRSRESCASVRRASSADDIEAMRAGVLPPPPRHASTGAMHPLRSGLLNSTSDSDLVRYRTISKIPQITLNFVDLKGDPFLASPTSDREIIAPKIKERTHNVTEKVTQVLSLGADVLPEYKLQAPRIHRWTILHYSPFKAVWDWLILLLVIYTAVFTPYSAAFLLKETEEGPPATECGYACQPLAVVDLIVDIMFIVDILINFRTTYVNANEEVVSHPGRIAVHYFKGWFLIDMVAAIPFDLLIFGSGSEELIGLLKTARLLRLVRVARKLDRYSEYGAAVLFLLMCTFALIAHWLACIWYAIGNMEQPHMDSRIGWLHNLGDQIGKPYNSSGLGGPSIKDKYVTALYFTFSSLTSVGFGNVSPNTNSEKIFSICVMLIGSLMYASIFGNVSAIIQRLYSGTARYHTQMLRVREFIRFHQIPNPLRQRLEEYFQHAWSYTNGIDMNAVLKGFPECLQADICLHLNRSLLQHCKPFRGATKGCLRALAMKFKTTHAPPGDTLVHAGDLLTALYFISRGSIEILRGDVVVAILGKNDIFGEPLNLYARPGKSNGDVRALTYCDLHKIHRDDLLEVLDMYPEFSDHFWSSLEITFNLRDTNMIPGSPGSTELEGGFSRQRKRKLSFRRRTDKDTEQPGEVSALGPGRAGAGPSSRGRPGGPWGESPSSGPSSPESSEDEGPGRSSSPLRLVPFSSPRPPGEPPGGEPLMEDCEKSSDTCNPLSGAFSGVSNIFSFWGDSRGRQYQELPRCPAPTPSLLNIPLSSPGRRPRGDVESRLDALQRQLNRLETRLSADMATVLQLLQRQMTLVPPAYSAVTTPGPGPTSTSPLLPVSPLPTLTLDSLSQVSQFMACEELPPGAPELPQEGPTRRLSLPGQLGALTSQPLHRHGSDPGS
Regarding `CC(=O)N1CCN(c2ccc(Oc3ccc([N+](=O)[O-])c(C(F)(F)F)c3)cc2)CC1`, the “hERG current change (%, negative = inhibition) at 1uM” value is 9.14%.

In the case of `COC(=O)c1cc(OC)c(OC)cc1NC(=O)c1c(-c2ccccc2)noc1C`, the “hERG current change (%, negative = inhibition) at 1uM” value was determined as 1.27%. The value for `O=S(=O)(NCc1cccs1)c1ccccc1Cl` was 6.3%; that for `CCN1C(=O)c2cccc3c(S(=O)(=O)NCCCN4CCOCC4)ccc1c23` was 4.39%; that for `CCCOc1ccc(C(=O)NCC(c2cccs2)N(C)C)cc1` (stereo not shown) was -1.71%. Turning to `COc1ccccc1/C=C/C=N/NC(=O)c1ccccn1`, the “hERG current change (%, negative = inhibition) at 1uM” value was -2.5%. The value for `CCCCN(CCCC)C(=S)NC(=O)c1ccccc1Cl` was 10.9%. For the molecule `Cc1ccc(C(=O)Cn2nnc3c(sc4nc5c(c(-c6ccccc6)c43)CCC5)c2=O)cc1`, the “hERG current change (%, negative = inhibition) at 1uM” value worked out at 13.6%. For `CCCCN(CC(=O)NC1CCCC1)C(=O)C(=O)Nc1ccc2c(c1)OCCO2`, the “hERG current change (%, negative = inhibition) at 1uM” value is recorded as 8.29%. The value for `COCCn1nnnc1C(c1ccc(Cl)cc1)N1CCN(C(=O)c2ccco2)CC1.Cl` (stereo not shown) was 4.61%; that for `COc1ccccc1[N+](=O)[O-]` was 15.7%; that for `CCOC(=O)C(C)Oc1cccc2c(=O)n(CC(=O)N3CCCc4ccccc43)ccc12` (stereo not shown) was 15.8%. The value for `Cc1ccc(C2CN(CCC(N)=O)C(=O)CO2)cc1` (stereo not shown) was 5.47%. For the molecule `Cc1cc(S(=O)(=O)Nc2cc(C)c(O)c(C)c2)c(C)s1`, the “hERG current change (%, negative = inhibition) at 1uM” value is 9.93%.

In the case of `CCN(CC)S(=O)(=O)c1ccc(N2CCN(C)CC2)c(NC(=O)Nc2ccc(C)cc2)c1`, the “hERG current change (%, negative = inhibition) at 1uM” value is reported as 12.6%. Consider `O=[N+]([O-])c1ccc(C(=Nc2cccc3ccccc23)N2CCOCC2)cc1`, for which the “hERG current change (%, negative = inhibition) at 1uM” value turned out to be 3.71%.

With `CCOC(=O)CN1C(=O)CC(c2ccc([N+](=O)[O-])cc2)C1=O` (stereo not shown), the “hERG current change (%, negative = inhibition) at 1uM” value worked out at 6.7%. To `COc1ccc2ccc3c(c2c1)N=CC1(O3)N(C)c2ccccc2C1(C)C` (stereo not shown) belongs 5.08%. For `Cc1cc(/C=C2\SC(=S)NC2=O)c(C)n1-c1cccc(O)c1`, the “hERG current change (%, negative = inhibition) at 1uM” value came out at 8.34%. To `COCCNc1cc(NCCOC)c([N+](=O)[O-])cc1[N+](=O)[O-]` belongs 11%; to `COc1ccc(NC(=O)Cc2c[nH]c3ccccc23)cc1S(=O)(=O)N1CCCCC1`, 4.42%; to `CC1(C)N([O-])C(c2ccccc2)=C[N+](=O)C1(C)C`, -0.744%.

In the case of `CCCNC(=O)c1cc(S(=O)(=O)N2CCCCC2)ccc1N1CCOCC1`, the “hERG current change (%, negative = inhibition) at 1uM” value is reported as -9.91%. Turning to `CSC(C1CCCC1)n1nnc2ccccc21` (stereo not shown), the “hERG current change (%, negative = inhibition) at 1uM” value came out at 16.4%. The value for `COc1cccc(NC(=O)C/C(C)=N/NC(=O)c2ccccc2Cl)c1` was 8.32%.
